# Test results as given in article PMC4336329 (PLoS ONE, 2015).
# Screen size: about 310,000 compounds; about 2,200 (0.71%) showed an effect of 50% or more. The effect is printed as a negative number. The list shows a part of the results.
# Target: human ether-à-go-go-related gene (hERG) potassium channel (human, UniProt Q12809)
# Test: primary screen, population patch clamp on CHO cells stably expressing hERG
# human ether-à-go-go-related gene (hERG) potassium channel, sequence (Q12809 whole entry, looked up): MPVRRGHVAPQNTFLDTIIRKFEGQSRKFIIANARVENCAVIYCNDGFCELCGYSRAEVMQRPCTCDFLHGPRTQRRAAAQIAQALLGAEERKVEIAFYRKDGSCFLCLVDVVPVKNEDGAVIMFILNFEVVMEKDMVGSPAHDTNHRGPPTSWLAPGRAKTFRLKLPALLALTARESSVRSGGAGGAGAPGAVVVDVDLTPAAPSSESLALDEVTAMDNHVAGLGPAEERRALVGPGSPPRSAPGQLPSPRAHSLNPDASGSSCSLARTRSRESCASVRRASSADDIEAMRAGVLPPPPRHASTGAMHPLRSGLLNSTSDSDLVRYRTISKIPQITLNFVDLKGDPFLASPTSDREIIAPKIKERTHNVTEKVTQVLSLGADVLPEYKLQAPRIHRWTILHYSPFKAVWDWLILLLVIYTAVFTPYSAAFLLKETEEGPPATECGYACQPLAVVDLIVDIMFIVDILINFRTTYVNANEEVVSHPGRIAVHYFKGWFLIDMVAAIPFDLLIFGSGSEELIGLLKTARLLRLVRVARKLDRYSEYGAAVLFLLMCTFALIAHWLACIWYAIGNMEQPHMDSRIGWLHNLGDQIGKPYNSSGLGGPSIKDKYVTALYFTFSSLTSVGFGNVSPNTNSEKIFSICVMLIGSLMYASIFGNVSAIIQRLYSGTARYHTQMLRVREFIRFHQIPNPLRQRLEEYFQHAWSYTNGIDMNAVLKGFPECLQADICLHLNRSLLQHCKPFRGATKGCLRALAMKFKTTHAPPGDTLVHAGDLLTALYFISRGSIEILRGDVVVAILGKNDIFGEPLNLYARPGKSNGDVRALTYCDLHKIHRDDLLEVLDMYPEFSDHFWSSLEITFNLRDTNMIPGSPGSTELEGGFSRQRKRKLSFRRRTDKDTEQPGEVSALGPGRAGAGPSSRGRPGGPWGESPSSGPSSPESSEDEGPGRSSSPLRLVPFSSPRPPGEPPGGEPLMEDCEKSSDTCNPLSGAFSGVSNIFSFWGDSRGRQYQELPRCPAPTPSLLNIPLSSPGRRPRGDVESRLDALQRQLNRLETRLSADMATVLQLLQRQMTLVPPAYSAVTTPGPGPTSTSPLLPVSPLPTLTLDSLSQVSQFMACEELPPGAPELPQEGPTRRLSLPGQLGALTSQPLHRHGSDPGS
row,Compound,"hERG current change (%, negative = inhibition) at 1uM [%]"
1,Cc1ccc(S(=O)(=O)N(CC(=O)Nc2ccccc2-c2ccccc2)c2ccc(C)cc2C)cc1,10.7
2,Cc1cc(C(=O)Nc2ncc(C)s2)c2ccccc2n1,0.468
3,CCn1c(O)c(N=NC(=O)CNC(=O)c2ccco2)c2ccccc21,15.1
4,O=C(CCn1c(=S)oc2ccccc21)NC1CCCCCCC1,-0.725
5,COc1ccc(CCNC(=S)NCCc2c[nH]c3ccccc23)cc1,9.13
6,O=C(NCc1ccccc1C(F)(F)F)C1CCC(=O)N(C2CC2)C1 (centres unmarked),4.82
7,O=C(Nc1ccc2snnc2c1)Nc1cccc2ccccc12,7.89
8,COc1ccc(/C(N)=N/OC(=O)c2ccc([N+](=O)[O-])c(C)c2)cc1OC,11.1
9,CCCn1c(O)c(N=N)c2ccccc21,17.1
10,O=C(Nc1ccnc(-c2ccncc2)n1)C1CC1,6.56
11,CC[C@@H](CCC=C(C)C)C(=O)N(Cc1ccccc1)c1ccccc1,2.79
12,O=Cc1cn(CCC(=O)O)nc1-c1cccc(Br)c1,11.6
13,CCC(=O)N/N=c1/sc2ccccc2n1C,16
14,COc1ccccc1C(=O)NCCC(=O)N(C)CC(=O)Nc1ccc(Cl)cc1,3.84
15,Cc1cc(Br)ccc1NC(=O)c1ccccc1-c1ccccc1,36
16,Cc1cc(C)c(S(=O)(=O)NCCc2cc3ccc(C)c(C)c3[nH]c2=O)c(C)c1,16.4
17,C[C@H](NC(=O)C1CC(=O)N(c2ccc3c(c2)OCO3)C1)C(=O)NC1CCCC1 (some centres unmarked),2.67
18,Cc1ccc(N/C=C/C(=O)c2ccccc2)cc1C,14.4
19,COc1ccc(S(=O)(=O)N2CCOCC2)cc1C(=O)N(C)CCOc1ccc(Cl)cc1,-13.5
20,CC1(C)CC(NCc2ccncc2)CC(C)(C)N1,19.1
21,CCNS(=O)(=O)c1ccc(NC(=S)NCc2ccco2)cc1,3.99
22,COc1ccc(N2CC(C(=O)Nc3ccc4c(c3)OCCO4)CC2=O)cc1 (centres unmarked),10
23,Cc1ccc(-c2noc(CCC(=O)NCCN3CCc4ccccc4C3)n2)cc1,1.82

row,Compound,"hERG current change (%, negative = inhibition) at 1uM [%]"
1,O=C1NC(=O)N(C2CCCCC2)C(=O)C1C1c2ccccc2C(=O)N1Cc1ccccc1 (centres unmarked),2.17
2,CN(CC(=O)O/N=C(\N)c1ccc([N+](=O)[O-])cc1)S(=O)(=O)c1ccc2ccccc2c1,-7.16
3,CCNC(=O)/C(C#N)=C/c1c(N2CCN(C)CC2)nc2c(C)cccn2c1=O,13.9
4,CCn1c2ccccc2c2cc([N+](=O)[O-])ccc21,12.1
5,CCn1cc(C(=O)NC2CCCCC2)c(=O)c2cc(S(=O)(=O)N(C)C)ccc21,2.85
6,CC(=O)c1cccc(NC(=O)Cn2cnc(S(=O)(=O)N3CCOCC3)c2)c1,13
7,CCOC(=O)C1CCN(C(=O)Nc2ccc3nccnc3c2)CC1,-6.7
8,COC(=O)NC(=C(Cl)Cl)S(=O)(=O)c1ccccc1,12.2
9,Nc1nnc(SCC(=O)N2CCN(c3cccc(Cl)c3)CC2)n1-c1ccccc1,3.04
10,COc1ccccc1-c1cc(C(F)(F)F)nc(N2CCN(c3ccccc3)CC2)n1,2.09
11,COc1cccc(OCC(=O)N2CCCc3ccccc32)c1,8.12
12,Cc1nc(N2CCC(C)CC2)c2oc3ccccc3c2n1,16.3
13,COc1ccc(C)cc1C(=O)CCC(=O)NCCc1ccc(S(N)(=O)=O)cc1,9.61
14,COc1ccc(NC(=O)C/C(C)=N/NC(=O)c2cccs2)c([N+](=O)[O-])c1,-21.8
15,COc1cc(O)c(/C=N/NC(=O)c2ccncc2)c(OC)c1[N+](=O)[O-],1.14
16,COc1ccc(S(=O)(=O)Nc2ccc(N3CCOCC3)cc2)cc1Br,6.56
17,Nc1nc(-c2ccc(Cl)cc2)c(S(=O)(=O)c2ccccc2)s1,11.4
18,NC(=O)c1cccn(Cc2ccc(C(F)(F)F)cc2)c1=O,13.9
19,Cc1ccc(-c2cc(C(=O)NC3=NCCS3)c3ccccc3n2)cc1C,21.4
20,CCCCC(CC)C1OCC(C[N+]2(C)CCOCC2)O1 (centres unmarked),7.73
21,Cc1onc(-c2c(F)cccc2Cl)c1C(=O)Nc1c(C)n(C)n(-c2ccccc2)c1=O,1.11
22,COCCNC(=O)CCC1CCN(Cc2cccc(-c3ccc(C)o3)c2)CC1,11.2
23,CS(=O)(=O)N(CC(=O)N1CCCC1)c1ccc(Cl)cc1,10.9

row,Compound,"hERG current change (%, negative = inhibition) at 1uM [%]"
1,CCOc1cccc(NC(=O)C2CC(=O)N(C)C(=Nc3cccc(F)c3)S2)c1 (centres unmarked),9.17
2,CC(=O)Nc1ccc(NC(=O)COc2ccc([N+](=O)[O-])cc2)cc1,15.6
3,CC(C)(C)c1ccc(C(=O)CCC(=O)OCC(=O)NCCc2ccc(S(N)(=O)=O)cc2)cc1,6.11
4,CC1CCCC(C)N1/N=C/c1cc(Br)cc(Br)c1O (centres unmarked),8.54
5,NC(=S)c1ncc(C(F)(F)F)cc1Cl,6.93
6,Cc1ccc(C2(CCNCc3ccco3)CCOC(C(C)C)C2)cc1 (centres unmarked),-1.93
7,CCOC(=O)c1nnn2c1nc(N1CCN(C)CC1)c1ccccc12,8.43
8,COCCNC(=O)CN(CC1CCCO1)C(=O)CCC(=O)Nc1ccccn1 (centres unmarked),-1.06
9,CCOC(=O)CSc1nc2ccccc2c(=O)n1CC1CCCC1,-63.8
10,Nc1ccc(C(=O)c2ccccc2C(=O)O)cc1Cl,1.35
11,COC(=O)CCCC(=O)NCC1(N(C)Cc2ccccc2)Cc2ccccc2C1,9.35
12,Clc1ccc(-c2nc3ccccn3c2CN2CCSCC2)cc1,12.4
13,CC(C)(C)c1ccc(C(=O)NCCc2ccccc2)cc1,6.65
14,O=C(/C=C/c1c(F)cccc1Cl)Nc1nn[nH]n1,17.6
15,O=C(Cn1nnc(-c2ccc(F)cc2)n1)Nc1cccc(S(=O)(=O)N2CCCC2)c1,-2.45
16,COc1ccc(CN(C(=O)CSc2nnc(-c3ccccc3F)o2)c2ccc(F)cc2)cc1,4.95
17,Cc1noc(NS(=O)(=O)c2ccc(NC(=O)CSc3nnc4c(n3)[nH]c3ccccc34)cc2)c1C,13.2
18,O=C1N=C(N2CCOCC2)S/C1=C\c1ccc(OS(=O)(=O)c2ccccc2)cc1,-24
19,CCn1ccnc1CN(C)C(=O)CCc1nnc(CCCc2ccccc2)o1,6.13
20,O=C(NCCc1ccccc1)c1nc(-c2cccs2)no1,13.8
21,O=C1COc2ccc(C(=O)COC(=O)c3cnc(Cl)c(Cl)c3)cc2N1,11.3
22,COc1ccc(N=C2CC(C)(C)CC(=O)/C2=C(/O)c2ccccc2)cc1,4.8
23,Fc1cccc(Cl)c1CSc1nnnn1-c1ccc2c(c1)OCO2,6.42

row,Compound,"hERG current change (%, negative = inhibition) at 1uM [%]"
1,S=C(Nc1ccc(Cl)cc1)N1CCCC1,16.4
2,CCN(CC)c1ccc(S(=O)(=O)N2CCOCC2)cc1NC(=O)COC(=O)/C=C/c1ccc(C)o1,-18.1
3,Cc1ccc2[nH]c(C(=O)N3CCC(C(N)=O)CC3)cc2c1,14.6
4,O=C(NCc1ccc(OC(F)(F)F)cc1)C1CC(c2ccccc2[N+](=O)[O-])=NO1 (centres unmarked),-28.1
5,O=C(NN1C(=O)/C(=C/c2ccc(O)cc2)SC1=S)c1ccccc1O,13.9
6,CC(C)CCN1CC(C(=O)NCc2ccccc2)CC1=O (centres unmarked),2.42
7,O=C(Nc1cccc(O)c1)c1cccc(S(=O)(=O)N2CCCC2)c1,-1.06
8,COc1ccc(NC(=O)CSc2ncnc3sc(C)cc23)cc1,9.69
9,O=S(=O)(O)c1nnc2sc3ccccc3n12,20.2
10,COc1ccccc1NC(=O)COC(=O)CCn1c(C)csc1=O,11.9
11,O=C(CSCc1ccccc1)N/N=C/c1cc2c(cc1Br)OCO2,8.61
12,COc1c(C)cccc1C(=O)Nc1cc(Cl)ccc1N1CCOCC1,10.6
13,Cc1nc(NC(=O)/C=C/c2ccccc2)sc1C(=O)Nc1cccc(Cl)c1,13.3
14,Nn1c(SCC(=O)Nc2ccc(N3CCOCC3)cc2)nnc1-c1cccc(F)c1,9.34
15,CCC(=O)c1ccccc1OCCN1CCN(CC)CC1.O=C(O)C(=O)O,-2.43
16,CCC(=O)N1CCN(c2ccc(NC(=O)c3ccc4c(c3)OCCO4)cc2)CC1,5.94
17,O=C1NC(=O)N(Cc2ccc(F)cc2)C(=O)/C1=C\C=C\c1ccco1,3.89
18,Oc1ccc(N=Nc2cccc(C(F)(F)F)c2)cc1C=Nc1ccc(N2CCOCC2)cc1,10
19,O=C(NC1=NCCS1)c1ccc(C(F)(F)F)cc1,-4.94
20,CC(C)C1OC2(C)OC(=N)C1(C#N)C(C#N)(C#N)C2c1ccccc1 (centres unmarked),0.121
